# Reference: PMC4336329 (PLoS ONE, 2015)
# The campaign covered roughly 310,000 compounds. About 14,000 (4.5%) showed an effect of 50% or more. The effect is printed as a negative number. The list shows a part of the results.
# Target: human ether-à-go-go-related gene (hERG) potassium channel (human, UniProt Q12809)
# Test: primary screen, population patch clamp on CHO cells stably expressing hERG
# 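Also: peak tail current of the secondary pulse compared with the same well before compound.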
# Sequence of human ether-à-go-go-related gene (hERG) potassium channel (Q12809 whole entry, looked up): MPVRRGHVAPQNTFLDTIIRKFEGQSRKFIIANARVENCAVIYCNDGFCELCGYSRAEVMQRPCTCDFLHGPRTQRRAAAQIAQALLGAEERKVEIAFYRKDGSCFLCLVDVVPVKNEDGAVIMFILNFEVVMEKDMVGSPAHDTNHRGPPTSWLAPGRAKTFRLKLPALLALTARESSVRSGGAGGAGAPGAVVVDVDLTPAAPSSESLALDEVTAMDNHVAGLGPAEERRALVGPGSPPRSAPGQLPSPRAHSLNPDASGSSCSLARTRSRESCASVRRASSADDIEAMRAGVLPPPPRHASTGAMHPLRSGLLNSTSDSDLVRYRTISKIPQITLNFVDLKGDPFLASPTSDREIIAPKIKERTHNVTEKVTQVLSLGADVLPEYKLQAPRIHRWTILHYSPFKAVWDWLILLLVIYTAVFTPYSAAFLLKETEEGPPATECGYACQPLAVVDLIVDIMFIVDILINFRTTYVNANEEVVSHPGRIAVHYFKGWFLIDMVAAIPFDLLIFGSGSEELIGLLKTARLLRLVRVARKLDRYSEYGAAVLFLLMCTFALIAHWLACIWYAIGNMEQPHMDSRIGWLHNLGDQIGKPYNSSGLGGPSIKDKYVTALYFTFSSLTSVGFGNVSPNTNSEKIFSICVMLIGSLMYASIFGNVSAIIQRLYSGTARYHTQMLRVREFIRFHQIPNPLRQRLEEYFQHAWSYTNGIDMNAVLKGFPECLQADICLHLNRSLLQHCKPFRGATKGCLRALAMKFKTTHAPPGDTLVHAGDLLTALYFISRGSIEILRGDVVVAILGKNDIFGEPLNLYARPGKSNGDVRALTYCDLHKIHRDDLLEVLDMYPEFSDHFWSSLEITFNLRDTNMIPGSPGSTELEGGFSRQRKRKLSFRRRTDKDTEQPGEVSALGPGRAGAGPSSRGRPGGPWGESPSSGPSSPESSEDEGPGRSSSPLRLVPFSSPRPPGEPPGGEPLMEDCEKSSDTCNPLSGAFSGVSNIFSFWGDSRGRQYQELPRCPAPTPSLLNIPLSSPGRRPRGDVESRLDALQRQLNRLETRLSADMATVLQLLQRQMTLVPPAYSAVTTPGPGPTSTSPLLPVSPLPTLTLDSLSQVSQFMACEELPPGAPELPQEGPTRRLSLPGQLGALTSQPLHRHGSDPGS
row,SMILES,"hERG current change (%, negative = inhibition) at 10uM"
1,O=C(O)Cc1ccc(NC(=O)c2ccc(Cl)c(Cl)c2)cc1,18.4%
2,CCC(=O)N1CCc2cc(Br)cc(S(=O)(=O)N3CCC(C(=O)NCCCOC(C)C)CC3)c21,-12.2%
3,Cc1cccn2c(=O)c(C=O)c(N3CCC4(CC3)OCCO4)nc12,-1.14%
4,Cc1ccc(C(C)C)c(OCc2nnc(SCC(=O)Nc3nccs3)n2C)c1,6.67%
5,CC(=O)N1N=C(c2ccco2)CC1c1ccc(C)cc1 (centres unmarked),-4.3%
6,COC(=O)c1cc(C(=O)Nc2nc3ccccc3[nH]2)cc([N+](=O)[O-])c1,15.7%
7,Cc1ccc(Cl)c(OCC(=O)N(C)CC(=O)Nc2ccc(N3CCOCC3)cc2)c1,9.14%
8,CC(C)(C)Nc1c(-c2cccs2)nc2ccccn12,5.42%
9,CCN(CC)c1ccc(C(=O)Nc2ccccc2)cc1[N+](=O)[O-],-5.94%
10,c1c(CC2CCCC2)nnn1C[C@H]1CC[C@@H]([C@@H]2CC[C@H](Cn3cc(CC4CCCC4)nn3)O2)O1,-57.6%
11,CC1CCN(C(=O)CC(NC(=O)c2ccccc2Cl)c2ccccc2)CC1 (centres unmarked),-15.7%
12,Cc1ccc(C(=O)NNC(=O)C2CC2)cc1Br,14.3%
13,O=C(NCCc1ccccn1)c1ccc(S(=O)(=O)N2CCCCCC2)cc1,-22.6%
14,CCOC(=O)c1cnn(Cc2ccc(C)cc2)c1N,10.3%
15,CC(C)c1ccc(C(O)c2cnc(C(C)C)n2C)cc1 (centres unmarked),-27.5%
16,O=C(CSc1nnc(CNc2ccccc2)o1)N1CCCc2ccccc21,-23.8%
17,COc1cccc(OC)c1C(=O)Nc1cccc(NC(=O)c2cccs2)c1,8.11%
18,CCCn1nnc(NC(=O)c2ccc(Br)cc2)n1,-8.37%
19,CC1CN(C(=O)Nc2ccc3c(c2)OCCO3)CC(C)O1 (centres unmarked),22.5%
20,O=C1c2ccncc2C(=O)N1CO,19.7%
21,Cc1cccc2cc(CN(Cc3cccs3)Cc3nnnn3Cc3ccccc3)c(=O)[nH]c12,-9.39%
22,O=S(=O)(Nc1ccc(-c2cn3c(n2)SCC3)cc1)c1ccccc1F,5.86%

row,SMILES,"hERG current change (%, negative = inhibition) at 10uM"
1,COc1ccc(N(CC(=O)NCc2ccc3c(c2)OCO3)S(C)(=O)=O)cc1OC,1.12%
2,Br.O=C(O)c1ccccc1CSC1=NCCS1,28.3%
3,Cn1cc(CNCc2ccccc2OCC(O)CN2CCc3ccccc3C2)cn1 (centres unmarked),-0.11%
4,Cc1ccc2c(=O)[nH]c(Cc3ccccc3C(=O)O)nc2c1,26.9%
5,CCN(Cc1nc(-c2cccc(C)c2)no1)C(=O)c1ccc2c(c1)OCO2,-25.4%
6,O=Cc1c(N2CCSCC2)nc2ccccn2c1=O,-4.22%
7,Cc1ccc(/C=N/NC(=O)C(C)Oc2cccc3ccccc23)o1 (centres unmarked),2.95%
8,CCC(=O)Nc1ccc(-c2nn3c(C)nnc3s2)cc1C,-7.57%
9,O=S(=O)(c1ccc(Cl)cc1)N1CCNCC1,-4.99%
10,Cc1cccc(NC(=O)CSc2nnc(-c3ccc(S(=O)(=O)N4CCOCC4)cc3)n2C)c1,-7.42%
11,Cn1cc([N+](=O)[O-])c(C(=O)Nc2ccc3c(C(F)(F)F)cc(=O)oc3c2)n1,15.6%
12,CCc1ccc(N2CC(C(=O)OCC(=O)NC3CCS(=O)(=O)C3)CC2=O)cc1 (centres unmarked),16.2%
13,N#CC1(c2ccccc2)CCC(=O)N1c1ccccc1 (centres unmarked),12.4%
14,COc1ccc(C(=O)Nc2ccc(NC(=O)c3cnccn3)cn2)cc1,1.88%
15,COc1cnc(SC)nc1Nc1ccc(C#N)cc1,-66.8%
16,CCc1noc(C)c1C(=O)N1CC(C)OC(C)C1 (centres unmarked),10.9%
17,CC(C)(C)C1CCC(OC(=O)c2cncc(Br)c2)CC1 (centres unmarked),18.2%
18,CC(C)c1ccc(CN(C(=O)C2COc3ccccc3O2)C2CCS(=O)(=O)C2)cc1 (centres unmarked),-11.3%
19,CCOc1ccc(OCCOc2ncnc3ccccc23)cc1,1.56%
20,COc1ccc(OC)c(NC(=O)COC(=O)c2ccc(S(=O)(=O)N3CCOCC3)cc2)c1,-15.3%
21,Cc1cc(=O)oc2cc(OCC(=O)Nc3ccccc3C(N)=O)c(Cl)cc12,18.5%
22,S=C(NCc1ccccc1)NCc1ccc2c(c1)OCO2,-33.1%
